# The supplement of paper PMC10037445
# Several values for one entry are separate records, joined by “and”; a condition that tells them apart may be missing. Identical values can stand only once. ± gives the standard deviation of the averaged measurements. Over roughly 2,900 compounds, “IRF Lucia reporter activity, fold change vs agonist alone” has its median near 0.9; the highest 2% begin near 2.8. Some of the results follow.
# Key:
# RAW-Dual [1] = assay: IRF Lucia reporter activity, fold change vs agonist alone; cytotoxicity flag (confluency mask): not cytotoxic; higher = enhanced IRF activity
# Summary of the method: (§1)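 Reporter activity is given as fold change relative to agonist-alone wells. To measure it, 50 nL of library stock was pin-tooled onto RAW-Dual macrophages (50,000 cells/well, DMEM, 384-well plates), a PRR agonist followed 1 h later, and cells stayed at 37 °C, 5% CO2. Twenty hours on, supernatant was assayed for IRF (QuantiLuc luminescence) and NF-κB (QuantiBlue, 620 nm absorbance), and wells under 70% of agonist-control IncuCyte confluency in both mask sets were marked cytotoxic.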
# RAW-Dual [2] = assay: IRF Lucia reporter activity, fold change vs agonist alone; higher = enhanced IRF activity; conditions: agonist: MPLA (TLR4) […]
# Summary of the method: as §1
# RAW-Dual [3] = assay: IRF Lucia reporter activity, fold change vs agonist alone; cytotoxicity flag (confluency mask): cytotoxic (confluency <70% of control); higher = enhanced IRF activity
# Summary of the method: as §1
# [4] = agonist: 3'3'-cGAMP (STING) 10 ug/mL
# [5] = library stock concentration (final ~1000-fold dilution): 10 mM, cytotoxicity flag (confluency mask): not cytotoxic
smiles,measurement,setting,value
CCCC(C)NC(=O)c1ccc(Cl)c(Cl)c1 (stereo not given) (library stock concentration (final ~1000-fold dilution): 10 mM),IRF Lucia reporter activity,RAW-Dual [1]; [4],0.887
same,IRF Lucia reporter activity,RAW-Dual [1]; agonist: LPS (TLR4) 0.1 ug/mL,1.07
CN(C)c1ccc(O)c2c1CC1CC3C(N(C)C)C(O)=C(C(N)=O)C(=O)C3(O)C(O)=C1C2=O.Cl (stereo not given),IRF Lucia reporter activity,"RAW-Dual [2]; library stock concentration (final ~1000-fold dilution): 2 mM water, cytotoxicity flag (confluency mask): not cytotoxic",1.28
CN(C)c1ccc(O)c2c1CC1CC3C(N(C)C)C(O)=C(C(N)=O)C(=O)C3(O)C(O)=C1C2=O.Cl (stereo not given) (library stock concentration (final ~1000-fold dilution): 2 mM water),IRF Lucia reporter activity,RAW-Dual [1]; [4],1.09
same,IRF Lucia reporter activity,RAW-Dual [1]; agonist: LPS (TLR4) 0.1 ug/mL,0.851
COC(=O)c1ccc(O)c(NC(=O)COc2ccc(C34CC5CC(CC(C5)C3)C4)cc2)c1 (library stock concentration (final ~1000-fold dilution): 10 mM),IRF Lucia reporter activity,RAW-Dual [1]; [4],0.925
same,IRF Lucia reporter activity,RAW-Dual [1]; agonist: LPS (TLR4) 0.1 ug/mL,1.14
CN1c2c(nc(N)[nH]c2=O)NC[C@@H]1CNc1ccc(C(=O)N[C@@H](CCC(=O)O)C(=O)O)cc1 (library stock concentration (final ~1000-fold dilution): 10 mM),IRF Lucia reporter activity,RAW-Dual [1]; [4],0.837
same,IRF Lucia reporter activity,RAW-Dual [1]; agonist: LPS (TLR4) 0.1 ug/mL,0.839
CCOc1cn(-c2ccc(F)cc2C)nc1C(=O)Nc1ccc(Oc2ccnc3cc(OC)c(OC)cc23)c(F)c1 (library stock concentration (final ~1000-fold dilution): 10 mM),IRF Lucia reporter activity,RAW-Dual [1]; [4],1.02
same,IRF Lucia reporter activity,RAW-Dual [1]; agonist: LPS (TLR4) 0.1 ug/mL,0.575
COCc1ccc(-c2ccc3ncc(C(N)=O)c(NC(C)C4CCOCC4)c3c2)cn1 (stereo not given) (library stock concentration (final ~1000-fold dilution): 10 mM),IRF Lucia reporter activity,RAW-Dual [1]; [4],0.252
same,IRF Lucia reporter activity,RAW-Dual [1]; agonist: LPS (TLR4) 0.1 ug/mL,0.916
O=c1cc(-c2ccc(O)cc2)oc2c(C3OC(CO)C(O)C(O)C3O)c(O)cc(O)c12 (stereo not given) (library stock concentration (final ~1000-fold dilution): 10 mM),IRF Lucia reporter activity,RAW-Dual [1]; [4],0.992
same,IRF Lucia reporter activity,RAW-Dual [1]; agonist: LPS (TLR4) 0.1 ug/mL,1.08
COc1cc(N2CCN(C)CC2)ccc1Nc1nccc(-c2cn(C)c3cnccc23)n1 (library stock concentration (final ~1000-fold dilution): 10 mM),IRF Lucia reporter activity,RAW-Dual [1]; [4],0.0231
same,IRF Lucia reporter activity,RAW-Dual [1]; agonist: LPS (TLR4) 0.1 ug/mL,0.154
COc1cc(N2CCN(C)CC2)ccc1Nc1nccc(-c2cn(C)c3cnccc23)n1,IRF Lucia reporter activity,RAW-Dual [2]; [5],0.246
COC12C(COC(N)=O)C3=C(C(=O)C(C)=C(N)C3=O)N1CC1NC12 (stereo not given) (library stock concentration (final ~1000-fold dilution): 10 mM),IRF Lucia reporter activity,RAW-Dual [1]; [4],0.783
same,IRF Lucia reporter activity,RAW-Dual [1]; agonist: LPS (TLR4) 0.1 ug/mL,1.35
COC(=O)C1=C(C)NC(C)=C(C(=O)OC)C1c1ccccc1[N+](=O)[O-],IRF Lucia reporter activity,RAW-Dual [2]; [5],0.406
COC(=O)C1=C(C)NC(C)=C(C(=O)OC)C1c1ccccc1[N+](=O)[O-] (library stock concentration (final ~1000-fold dilution): 10 mM),IRF Lucia reporter activity,RAW-Dual [1]; [4],0.606
same,IRF Lucia reporter activity,RAW-Dual [1]; agonist: LPS (TLR4) 0.1 ug/mL,0.554
CN1CCN(CCCN2c3ccccc3Sc3ccc(C(F)(F)F)cc32)CC1.Cl.Cl (library stock concentration (final ~1000-fold dilution): 10 mM),IRF Lucia reporter activity,RAW-Dual [3]; [4],0.788
same,IRF Lucia reporter activity,RAW-Dual [3]; agonist: LPS (TLR4) 0.1 ug/mL,0.737
CN1CCN(CCCN2c3ccccc3Sc3ccc(C(F)(F)F)cc32)CC1.Cl.Cl,IRF Lucia reporter activity,"RAW-Dual [2]; library stock concentration (final ~1000-fold dilution): 10 mM, cytotoxicity flag (confluency mask): cytotoxic (confluency <70% of control)",1.81
O=c1nc(N2CCOCC2)oc2c(-c3cccc4c3sc3ccccc34)cccc12 (library stock concentration (final ~1000-fold dilution): 10 mM),IRF Lucia reporter activity,RAW-Dual [1]; [4],0.298
same,IRF Lucia reporter activity,RAW-Dual [1]; agonist: LPS (TLR4) 0.1 ug/mL,1.03
CN(C)CC(c1ccc(O)cc1)C1(O)CCCCC1.O=C(O)CCC(=O)O (stereo not given) (library stock concentration (final ~1000-fold dilution): 10 mM),IRF Lucia reporter activity,RAW-Dual [1]; [4],1.09
same,IRF Lucia reporter activity,RAW-Dual [1]; agonist: LPS (TLR4) 0.1 ug/mL,0.986
CN(C)CC(c1ccc(O)cc1)C1(O)CCCCC1.O=C(O)CCC(=O)O (stereo not given),IRF Lucia reporter activity,RAW-Dual [2]; [5],1.02
O=C(O)CSc1cc(NS(=O)(=O)c2ccc(Br)cc2)c2ccccc2c1O (library stock concentration (final ~1000-fold dilution): 10 mM),IRF Lucia reporter activity,RAW-Dual [1]; [4],0.391
same,IRF Lucia reporter activity,RAW-Dual [1]; agonist: LPS (TLR4) 0.1 ug/mL,1.26
O=C(O)CSc1cc(NS(=O)(=O)c2ccc(Br)cc2)c2ccccc2c1O,IRF Lucia reporter activity,RAW-Dual [2]; [5],1.42
Cc1cc(C(=O)O)n[nH]1 (library stock concentration (final ~1000-fold dilution): 10 mM),IRF Lucia reporter activity,RAW-Dual [1]; [4],1.03
same,IRF Lucia reporter activity,RAW-Dual [1]; agonist: LPS (TLR4) 0.1 ug/mL,1.25
Cc1cc(C(=O)O)n[nH]1,IRF Lucia reporter activity,RAW-Dual [2]; [5],1.09
C#CC1(O)CCC2C3CCC4=Cc5oncc5CC4(C)C3CCC21C (stereo not given) (library stock concentration (final ~1000-fold dilution): 10 mM),IRF Lucia reporter activity,RAW-Dual [1]; [4],0.976
same,IRF Lucia reporter activity,RAW-Dual [1]; agonist: LPS (TLR4) 0.1 ug/mL,0.805
NCCCCC(NC(CCc1ccccc1)C(=O)O)C(=O)N1CCCC1C(=O)O (stereo not given) (library stock concentration (final ~1000-fold dilution): 10 mM water),IRF Lucia reporter activity,RAW-Dual [1]; [4],1.32
same,IRF Lucia reporter activity,RAW-Dual [1]; agonist: LPS (TLR4) 0.1 ug/mL,0.679
NCCCCC(NC(CCc1ccccc1)C(=O)O)C(=O)N1CCCC1C(=O)O (stereo not given),IRF Lucia reporter activity,"RAW-Dual [2]; library stock concentration (final ~1000-fold dilution): 10 mM water, cytotoxicity flag (confluency mask): not cytotoxic",1.47
Nc1ccc(O)c(C(=O)O)c1,IRF Lucia reporter activity,RAW-Dual [2]; [5],1.07 ± 0.12
Nc1ccc(O)c(C(=O)O)c1 (library stock concentration (final ~1000-fold dilution): 10 mM),IRF Lucia reporter activity,RAW-Dual [1]; [4],0.974 and 1.02
same,IRF Lucia reporter activity,RAW-Dual [1]; agonist: LPS (TLR4) 0.1 ug/mL,0.961 and 1.01
